Test results: paper PMC10185812
These are yes or no findings as the source states them, for the method shown. Binding seen in cells or lysates may run through a third protein. Some binding calls cover weakened binding; strength is not graded here. Where a sequence is shown, tags or fusion partners need not be part of it.

Experiments:
Assay in all cases: co-IP; ARPE-19 transiently co-transfected with tagged C21ORF2 (GFP or 3xHA) and 3xFLAG-NEK1 (full length, truncated or mutated); immunoprecipitation with anti-FLAG antibodies; washes with 500 mM NaCl, 1% Triton X-100; immunoblotting
[1] = target: T1, 3xFLAG-NEK1 760-1,286 (human) (UniProt Q96PY6)
T1 sequence: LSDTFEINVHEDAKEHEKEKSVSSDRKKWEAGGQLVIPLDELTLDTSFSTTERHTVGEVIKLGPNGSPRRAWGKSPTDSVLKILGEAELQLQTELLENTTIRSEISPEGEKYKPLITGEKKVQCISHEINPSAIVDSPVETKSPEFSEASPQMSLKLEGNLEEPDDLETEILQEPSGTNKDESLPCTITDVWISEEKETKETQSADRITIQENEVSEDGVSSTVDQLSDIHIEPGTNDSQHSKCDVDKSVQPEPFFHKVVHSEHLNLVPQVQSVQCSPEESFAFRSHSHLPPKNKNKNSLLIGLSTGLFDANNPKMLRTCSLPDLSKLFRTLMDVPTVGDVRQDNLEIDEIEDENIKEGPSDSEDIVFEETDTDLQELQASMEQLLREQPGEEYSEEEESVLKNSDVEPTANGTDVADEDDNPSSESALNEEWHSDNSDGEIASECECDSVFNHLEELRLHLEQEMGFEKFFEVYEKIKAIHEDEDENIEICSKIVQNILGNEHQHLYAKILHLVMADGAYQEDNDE

[2] = target: T2, 3xFLAG-NEK1 1-379 (human) (UniProt Q96PY6)
T2 sequence: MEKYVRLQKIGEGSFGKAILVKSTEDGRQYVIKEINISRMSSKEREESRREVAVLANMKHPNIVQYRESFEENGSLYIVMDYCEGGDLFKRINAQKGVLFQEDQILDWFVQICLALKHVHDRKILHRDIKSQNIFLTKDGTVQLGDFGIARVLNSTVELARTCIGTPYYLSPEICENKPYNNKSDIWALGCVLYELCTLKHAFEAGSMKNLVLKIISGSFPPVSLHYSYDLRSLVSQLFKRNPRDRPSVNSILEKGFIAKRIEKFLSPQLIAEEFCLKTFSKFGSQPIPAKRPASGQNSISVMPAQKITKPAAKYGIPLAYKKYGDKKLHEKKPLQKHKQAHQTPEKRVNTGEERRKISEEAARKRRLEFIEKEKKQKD

[3] = target: T3, 3xFLAG-NEK1 1-1,160 (human) (UniProt Q96PY6)
T3 sequence: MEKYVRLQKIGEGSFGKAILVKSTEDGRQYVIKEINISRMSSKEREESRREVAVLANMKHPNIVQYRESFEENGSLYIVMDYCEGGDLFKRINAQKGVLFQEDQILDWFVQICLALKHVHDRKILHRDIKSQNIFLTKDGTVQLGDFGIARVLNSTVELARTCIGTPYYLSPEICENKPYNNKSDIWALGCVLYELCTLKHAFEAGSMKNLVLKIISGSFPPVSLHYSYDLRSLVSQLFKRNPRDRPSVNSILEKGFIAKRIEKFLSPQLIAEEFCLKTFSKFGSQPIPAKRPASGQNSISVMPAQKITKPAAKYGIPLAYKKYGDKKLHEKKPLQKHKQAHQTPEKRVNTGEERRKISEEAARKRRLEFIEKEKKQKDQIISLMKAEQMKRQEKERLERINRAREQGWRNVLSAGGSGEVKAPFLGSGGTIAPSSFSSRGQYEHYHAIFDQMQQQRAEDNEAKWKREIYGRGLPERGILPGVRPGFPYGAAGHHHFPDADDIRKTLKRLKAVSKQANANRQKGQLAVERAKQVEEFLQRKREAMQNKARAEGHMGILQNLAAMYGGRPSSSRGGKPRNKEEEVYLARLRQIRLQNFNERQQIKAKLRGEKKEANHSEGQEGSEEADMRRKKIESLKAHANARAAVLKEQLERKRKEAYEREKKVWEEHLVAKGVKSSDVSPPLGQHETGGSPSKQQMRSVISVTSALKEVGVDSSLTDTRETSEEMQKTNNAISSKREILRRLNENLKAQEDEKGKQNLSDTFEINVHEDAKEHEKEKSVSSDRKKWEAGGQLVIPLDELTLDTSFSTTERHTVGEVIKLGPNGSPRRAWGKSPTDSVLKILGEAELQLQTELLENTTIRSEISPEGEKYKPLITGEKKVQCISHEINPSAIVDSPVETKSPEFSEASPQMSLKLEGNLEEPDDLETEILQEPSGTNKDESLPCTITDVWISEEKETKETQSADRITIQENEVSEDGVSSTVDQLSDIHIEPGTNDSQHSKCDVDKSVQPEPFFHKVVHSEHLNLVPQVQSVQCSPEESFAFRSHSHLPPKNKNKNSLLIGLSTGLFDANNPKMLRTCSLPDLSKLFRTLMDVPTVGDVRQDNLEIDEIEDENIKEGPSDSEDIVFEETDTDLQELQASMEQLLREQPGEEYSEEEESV

binding [1]: binds
binding [2]: no binding
binding [3]: no binding
B1: GFP-C21ORF2 (protein, UniProt O43822-1 1-256)
chain: MKLTRKMVLTRAKASELHSVRKLNCWGSRLTDISICQEMPSLEVITLSVNSISTLEPVSRCQRLSELYLRRNRIPSLAELFYLKGLPRLRVLWLAENPCCGTSPHRYRMTVLRTLPRLQKLDNQAVTEEELSRALSEGEEITAAPEREGTGHGGPKLCCTLSSLSSAAETGRDPLDSEEEATSGAQDERGLKPPSRGQFPSLSARDASSSHRGRNVLTAILLLLRELDAEGLEAVQQTVGSRLQALRGEEVQEHAE
